# Data as given in the supplement of paper PMC4604168 (melanoma cell lines).
# This is one part of the list. Single values are uncertain, as repeats are few or missing.
# Test system: IST-MEL1
# Experiment: cell count relative to DMSO control; melanoma cells; higher = more viable cells
# Details: library dose: standard library concentration; 72 h
# 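Note: cells treated in 1,536-well plates, then fixed and DAPI-stained, with nuclei counted from automated high-throughput microscope images.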
row,SMILES,cell count [%]
1,"Cn1nnc2c(C(N)=O)ncn2c1=O [temozolomide] + Oc1nc(-c2ccc(C(F)(F)F)cc2)nc2c1CSCC2 [XAV939] (first compound 10 µM, partner dose 10 µM)",89.1
2,"O=C(Nc1cc(C(F)(F)F)cc(C(F)(F)F)c1)c1cc(Cl)ccc1O + C[C@]1(c2nc3c(C(N)=O)cccc3[nH]2)CCCN1 [Veliparib] (first compound 0.08 µM, partner dose 7 µM)",102
3,"O=C(O)c1ccc2c(c1)nc(Nc1cccc(Cl)c1)c1ccncc12 + O=C(Nc1ccccc1)c1cc([N+](=O)[O-])ccc1Cl [GW9662] (first compound 2 µM, partner dose 10 µM)",72.4
4,"O=C(O)c1ccc2c(c1)nc(Nc1cccc(Cl)c1)c1ccncc12 + Cn1cc(/C=C2\C(=O)Nc3cccnc32)c2ccccc21 [GW441756] (first compound 2 µM, partner dose 2 µM)",93.2
5,"O=C(O)[C@@H]1[O][Sb](=[O])([O][Sb]2(=[O])[O][C@H]([C@H](O)CO)[C@H](O)[C@H](C(=O)O)[O]2)[O][C@H]([C@H](O)CO)[C@@H]1O (stereo not given in full) [stibogluconate] + COc1ccc2c(c1)CCC1C2CCC2(C)C(NCCCCCCN3C(=O)C=CC3=O)CCC12 [U73122] (first compound 10 µM, partner dose 2 µM)",98.3
